Data published in PubChem BioAssay AID1347165 (National Center for Advancing Translational Sciences (NCATS), 2019).
The whole screen tested about 220,000 compounds, of which about 5,700 (2.6%) were called active. Inconclusive results, whose numbers are uncertain, are shown with a selection of clear calls. Calls follow the shape of the dose curve; as a rule, active = well fitted inhibition curve with a large enough effect; inconclusive = small, poorly fitted or top-dose-only effect; inactive = no such curve, though single readings can be large or run the other way. Where the call is inconclusive, the potency comes from a doubtful curve fit.

Target: Lysine-specific demethylase 5B (Homo sapiens) (UniProt Q9UGL1)
Sequence of UniProt Q9UGL1 (Q9UGL1 whole entry, looked up): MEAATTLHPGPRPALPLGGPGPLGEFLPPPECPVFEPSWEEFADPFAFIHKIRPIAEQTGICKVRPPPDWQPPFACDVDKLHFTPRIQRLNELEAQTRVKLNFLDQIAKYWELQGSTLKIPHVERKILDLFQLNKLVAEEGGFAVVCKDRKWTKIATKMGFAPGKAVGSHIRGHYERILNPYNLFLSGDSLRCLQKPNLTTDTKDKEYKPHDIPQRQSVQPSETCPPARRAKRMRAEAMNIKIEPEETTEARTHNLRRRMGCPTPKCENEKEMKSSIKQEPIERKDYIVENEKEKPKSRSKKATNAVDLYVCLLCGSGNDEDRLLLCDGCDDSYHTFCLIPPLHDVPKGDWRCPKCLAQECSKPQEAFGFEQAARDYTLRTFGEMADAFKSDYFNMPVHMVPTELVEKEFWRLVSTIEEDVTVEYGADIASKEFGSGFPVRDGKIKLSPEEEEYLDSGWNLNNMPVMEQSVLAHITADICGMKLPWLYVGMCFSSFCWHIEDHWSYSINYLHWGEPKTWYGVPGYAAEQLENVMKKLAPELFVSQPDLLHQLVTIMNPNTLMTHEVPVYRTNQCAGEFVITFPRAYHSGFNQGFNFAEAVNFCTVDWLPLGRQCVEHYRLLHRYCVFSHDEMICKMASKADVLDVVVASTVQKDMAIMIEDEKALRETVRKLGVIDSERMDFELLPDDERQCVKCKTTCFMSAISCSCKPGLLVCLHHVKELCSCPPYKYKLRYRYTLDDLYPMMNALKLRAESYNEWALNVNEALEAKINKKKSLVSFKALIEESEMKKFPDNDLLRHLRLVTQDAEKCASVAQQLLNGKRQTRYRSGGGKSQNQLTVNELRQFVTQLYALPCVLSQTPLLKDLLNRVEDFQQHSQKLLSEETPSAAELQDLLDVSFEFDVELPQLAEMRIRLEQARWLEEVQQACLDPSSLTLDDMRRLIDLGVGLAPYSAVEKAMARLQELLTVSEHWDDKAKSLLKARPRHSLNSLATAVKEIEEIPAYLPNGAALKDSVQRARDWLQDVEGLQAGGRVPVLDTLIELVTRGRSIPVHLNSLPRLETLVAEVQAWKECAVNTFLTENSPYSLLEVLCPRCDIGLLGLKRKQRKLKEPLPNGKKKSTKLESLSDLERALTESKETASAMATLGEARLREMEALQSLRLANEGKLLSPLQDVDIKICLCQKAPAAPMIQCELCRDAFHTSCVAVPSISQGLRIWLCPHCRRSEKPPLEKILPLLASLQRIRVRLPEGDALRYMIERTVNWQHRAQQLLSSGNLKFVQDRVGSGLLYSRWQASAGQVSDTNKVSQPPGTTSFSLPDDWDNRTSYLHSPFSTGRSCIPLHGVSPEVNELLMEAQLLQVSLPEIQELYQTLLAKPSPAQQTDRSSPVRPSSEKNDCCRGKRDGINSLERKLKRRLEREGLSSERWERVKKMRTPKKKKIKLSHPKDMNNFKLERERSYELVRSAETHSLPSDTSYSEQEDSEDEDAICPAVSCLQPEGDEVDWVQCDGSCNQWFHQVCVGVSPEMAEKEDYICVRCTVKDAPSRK
Assay: Primary screen for KDM5B Histone Demethylases FDH-coupled qHTS; also: nearly all actives have a fitted effect of over 70% in size; as to activity change, negative = inhibition: 0% is about no effect
Details: FDH-coupled NADH fluorescence (FDH is formaldehyde dehydrogenase); activity change, negative = inhibition: at 57.7 µM (top of the series) unless noted
Outline: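 Inhibition is measured as reduced NADH fluorescence generation from FDH coupling to formaldehyde release. Truncated KDM5BΔAP at 200 nM final acts on H3K4me3 peptide (12.5 µM in substrate mix) in pH 7.5 HEPES buffer with Tween-20, 30 min, room temperature.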
Potency is read from the fitted curve at half-maximal effect; tags tell the direction and shape of the fitted curve.

| SMILES | Potency | activity change, negative = inhibition |
| --- | --- | --- |
| O=C(NCCc1cccnc1)c1ccc(-c2nnc3ccc(NC(=O)C4CCC4)cn23)cc1 | inconclusive: 3.55 µM [inhibitor, partial curve, poor fit] |  |
| COc1ccc(-c2nc(C)c(CCNS(=O)(=O)c3ccc(F)cc3)s2)cc1OC | inconclusive: 15.8 µM [inhibitor, partial curve, poor fit] |  |
| COc1ccc(-c2ccc3nnc(SCC(N)=O)n3n2)cc1 | inconclusive: 25.1 µM [inhibitor, partial curve, poor fit] |  |
| CC(C)NC(=O)C1CCN(C(=O)N2CC3CC(C2)[C@H]2CCCC(=O)N2C3)CC1 (some centres undefined) |  | inactive: -7.48% |
| N#Cc1cc2c(nc1N1CCN(C(C(=O)O)c3c[nH]c4cc(Cl)ccc34)CC1)CCCC2 (centres undefined) | inconclusive: 22.4 µM [inhibitor, partial curve, poor fit] |  |
| Cc1ccc(-c2cc(C(=O)NCc3ccccn3)c3ccccc3n2)s1 | inconclusive: 25.1 µM [inhibitor, partial curve, poor fit] |  |
| O=C(NCc1ccc(F)cc1)c1nc(-c2ccccc2)c2ccccn12 | active: 28.2 µM |  |
| Cc1cccc(-c2nc3cc(NC(=O)c4cccc([N+](=O)[O-])c4C)ccc3o2)c1 |  | inactive: 9.77% |
| NCC1CCCN(Cc2ccc(-c3nc(-c4cccnc4)cc(=O)[nH]3)cc2)C1 (centres undefined) | inconclusive: 25.1 µM [inhibitor, single point] |  |
| CCCCOC(=O)c1ccc(Nc2nc3ccccc3nc2NS(=O)(=O)c2ccccc2)cc1 |  | inactive: -30.2% |
| Cc1ccc(C(=O)N[C@H]2CO[C@H]3[C@@H]2OC[C@@H]3Nc2nccc(-c3cccs3)n2)cc1 | inconclusive: 31.6 µM [inhibitor, partial curve] |  |
| Cc1ccc(C(=O)N/N=C\c2ccccn2)cn1 | inconclusive: 14.1 µM [inhibitor, partial curve, poor fit] |  |
| O=S(=O)(Nc1cc(S(=O)(=O)N2CCOCC2)ccc1O)c1ccc2c(c1)OCCCO2 | inconclusive: 5.62 µM [inhibitor, full curve, poor fit] |  |
| COC(=O)c1ccn(-c2nc(-c3ccc(Cl)cc3)cc(C(F)(F)F)n2)n1 | inconclusive: 35.5 µM [inhibitor, single point] |  |
| CSC(C)C(=O)NCc1ccc(C)s1 (centres undefined) | inconclusive: 39.8 µM [inhibitor, single point] |  |
| O=C(Cn1ccn2nc3c(c2c1=O)CCCC3)NCCc1ccccc1 | inconclusive: 39.8 µM [inhibitor, single point] |  |
| Cc1[nH]ncc1CNC(=O)CCC1CCCN(S(=O)(=O)c2cccc(F)c2)C1 (centres undefined) | inconclusive: 12.6 µM [inhibitor, partial curve] |  |
| Cc1ccccc1C1CC(=O)Oc2c1c(=O)n(C)c1ccccc21 (centres undefined) | inconclusive: 20 µM [inhibitor, partial curve, poor fit] |  |
| CC(C)C(Sc1nnc(-c2ccccc2)o1)C(=O)NCc1cccnc1 (centres undefined) |  | inactive: 11.4% |
| CCOc1ccccc1NC(=O)N1c2ccccc2CC1c1nc(C(C)C)no1 (centres undefined) | inconclusive: 15.8 µM [inhibitor, partial curve] |  |
| CCS(=O)(=O)N1CCC2(CC1)CN(C1CCC1)CC2COC (centres undefined) | inconclusive: 11.2 µM [inhibitor, partial curve] |  |
| CCCCNC(=O)CN1C(=O)c2c(c3ccccc3n2C)C1c1ccc(OC)cc1 (centres undefined) | inconclusive: 39.8 µM [inhibitor, partial curve, poor fit] |  |

| SMILES | Potency | activity change, negative = inhibition |
| --- | --- | --- |
| CC(NC(=O)c1ccc(F)cc1)c1cccc(NS(C)(=O)=O)c1 (centres undefined) |  | inactive: 20% |
| Cc1ccc2nc(COc3ccc(F)cc3)[nH]c2c1 |  | inactive: 17.7% |
| Cc1cccc2c(=O)cc(CSCC(=O)Nc3ccc(Cl)cc3)[nH]c12 | inconclusive: 28.2 µM [inhibitor, single point] |  |
| O=C1c2ccccc2NC(c2csc(-c3cccc(Br)c3)n2)N1C1CC1 (centres undefined) | inconclusive: 28.2 µM [inhibitor, single point] |  |
| CCCN(CCC)CCNC(=O)COCc1cc(-c2cccs2)on1 |  | inactive: -18.7% |
| O=C(Nc1cccc(F)c1)[C@@H]1C[C@@H](c2cccc(C(F)(F)F)c2)N(CC2CCOCC2)C1 | inconclusive: 25.1 µM [inhibitor, single point] |  |
| CC(OC(=O)c1ccc(C#N)cc1)C(=O)C12CC3CC(CC(C3)C1)C2 (centres undefined) |  | inactive: 22.1% |
| CCOC(=O)c1cccc(OCC(O)CNCCOc2ccccc2F)c1 (centres undefined) | inconclusive: 6.31 µM [inhibitor, full curve, poor fit] |  |
| CC(C(=O)NC1CC1)N1CCN(c2oc(-c3ccco3)nc2C#N)CC1 (centres undefined) | inconclusive: 22.4 µM [inhibitor, partial curve, poor fit] |  |
| Cc1cc(C)c(CNC(=O)c2nc(-c3ccc(CO)cc3)cc3c2ccn3C)c(=O)[nH]1 | active: 35.5 µM |  |
| COc1ccc(N(CC(=O)N2CCN(Cc3ccccc3)CC2)S(=O)(=O)c2ccc(F)cc2)cc1 |  | inactive: 5.04% |
| CCOc1ccc(/C=C/C(=O)c2cccc(O)c2)cc1 | inconclusive: 39.8 µM [inhibitor, partial curve, poor fit] |  |
| CCOC(=O)C(NC(C)=O)C(=O)OCC |  | inactive: 22.5% |
| Cc1cccc(NC(=O)Nc2ccc(C)n(CC(=O)NC(C)C)c2=O)c1 | inconclusive: 31.6 µM [inhibitor, single point] |  |
| COc1cccc(-c2nc3cc(NC(=O)CC(C)C)ccc3o2)c1 | inconclusive: 25.1 µM [inhibitor, partial curve, poor fit] |  |
| C=C(C)CN(CC)Cc1ccc(=O)n(CCOC)c1 | inconclusive: 20 µM [inhibitor, single point] |  |
| COc1cccc(-c2nc3c([nH]2)CC(C)(C)CNC3=O)c1OC | inconclusive: 20 µM [inhibitor, single point] |  |
| CCOC(=O)Cn1c(=O)n(C2CCCCC2)c2nc(-c3ccc(OC)cc3)nc(C(N)=O)c21 | inconclusive: 1.78 µM [inhibitor, partial curve, poor fit] |  |
| Cc1cn2nc(C(=O)NC3CCCCCC3)cc2c(N2CCSCC2)n1 | inconclusive: 35.5 µM [inhibitor, partial curve, poor fit] |  |
| CCn1c(Cn2ccnc2C)nnc1C1CCN(c2cc(C#N)ccn2)CC1 | inconclusive: 31.6 µM [inhibitor, partial curve, poor fit] |  |
| COc1ccc(-c2nc(C3CC3)nc3c2CCN(Cc2cncs2)CC3)cc1 | inconclusive: 56.2 µM [inhibitor, partial curve, poor fit] |  |
| COc1ccc(Cc2nc3ccc(C(=O)NCCc4ccc(OC)c(OC)c4)cc3o2)cc1 | inconclusive: 44.7 µM [inhibitor, single point] |  |

| SMILES | Potency | activity change, negative = inhibition |
| --- | --- | --- |
| O=C1Cc2c(-c3ccccc3OCc3ccccc3)n[nH]c2CN1CC1CCOCC1 | inconclusive: 39.8 µM [inhibitor, partial curve, poor fit] |  |
| CC(C)(C)NC(=O)CSc1nc(-c2ccc(F)cc2)cc(C(F)(F)F)n1 | inconclusive: 25.1 µM [inhibitor, partial curve, poor fit] |  |
| CCc1c(C)sc(NC(=O)C(F)(F)C(F)(F)C(F)(F)F)c1C#N | inconclusive: 28.2 µM [inhibitor, single point] |  |
| Cc1nnc(-c2cc(-c3ccc(N4CCOCC4)cc3)ccn2)n1C1CCCCC1 | active: 31.6 µM |  |
| COc1ccccc1C(=O)Nc1nc2cc3c(cc2s1)OCO3 | inconclusive: 22.4 µM [inhibitor, partial curve, poor fit] |  |
| COc1ccc(CCC(=O)NCc2nnc3c(-c4nc(C)no4)cccn23)cc1 | inconclusive: 31.6 µM [inhibitor, single point] |  |
| Cn1nc(-c2ccccc2F)c2cc(C(=O)Nc3cc(F)ccc3F)sc21 | inconclusive: 31.6 µM [inhibitor, partial curve, poor fit] |  |
| Cc1ccccc1Cn1cc(CCC(=O)NCc2cccc(Br)c2)c2ccccc21 | inconclusive: 0.562 µM [inhibitor, full curve, poor fit] |  |
| CC(=O)Nc1cccc(-c2cc3c(ccn3CC3CCN(C)CC3)c(N3CCOCC3)n2)c1 | inconclusive: 15.8 µM [inhibitor, partial curve, poor fit] |  |
| CN(C)c1nc(-c2ccncc2)nc2c1CCN(C(=O)c1ccn[nH]1)C2 |  | inactive: 7.28% |
| O=C(c1nnc(CNCc2cnccn2)n1-c1ccccc1)N1CCC[C@@H]1C(c1ccccc1)c1ccccc1 | inconclusive: 31.6 µM [inhibitor, partial curve, poor fit] |  |
| CCn1c(SCC(=O)Nc2ccc(F)cc2C)nnc1C(C)NC(=O)c1ccco1 (centres undefined) |  | inactive: -11.6% |
| CCN(C(=O)c1cccc(C(F)(F)F)c1)C1CC1 |  | inactive: 25.3% |
| COCCn1ccc2c(C3=CCOCC3)nc(-c3cccc4cn[nH]c34)cc21 | active: 35.5 µM |  |
| O=C1CC2(CCN(S(=O)(=O)c3cccs3)CC2)Oc2cc(Cl)ccc21 | inconclusive: 35.5 µM [inhibitor, partial curve, poor fit] |  |
| CCOC(=O)N1CCC(NC(=O)CCCC(=O)O)CC1 |  | inactive: 33.8% |
| NC(=O)CSc1oc(-c2cccs2)nc1S(=O)(=O)c1ccc(Br)cc1 | inconclusive: 17.8 µM [inhibitor, single point] |  |
| Cc1ccc(-c2cc3c(=O)n(CCNC(=O)c4cccc(Cl)c4)ccn3n2)cc1C |  | inactive: 105% |
| COc1ccc(-c2cc(-c3cccs3)nc3c(C)noc23)cc1OC | inconclusive: 35.5 µM [inhibitor, partial curve, poor fit] |  |
| CN(C)[C@@H](Cc1ccccc1)C(=O)N1CCC(N2CCC(O)CC2)CC1 | inconclusive: 7.94 µM [inhibitor, partial curve] |  |
